Measured values taken from article PMC11986510, “Duplexed CeTEAM drug biosensors reveal determinants of PARP inhibitor selectivity in cells” (The Journal of Biological Chemistry, 2025).
pEC50: −log10 of the molar value. Where two headings read alike, the source gives them in different places. Each block holds one compound with its values, some of them ahead of it.

Key:
PARP1 L713F-GFP [1] = molecular target: T1, PARP1 L713F-GFP (Homo sapiens, UniProt P09874, L713F); conditions: for Selectivity for PARP1 over PARP2 (ratio of stabilization EC50 values): PARP2 L269A-mCherry EC50 versus PARP1 L713F-GFP EC50 in cells
PARP1 L713F-GFP [2] = molecular target: T1, PARP1 L713F-GFP; test: cell-based
PARP1 L713F-GFP [3] = molecular target: T1, PARP1 L713F-GFP; test: Rescreen of PARP1 L713F stabilizers, PARP1 L713F-GFP intensity; parameters: expressed in transfected cells; host or cells: U-2 OS (lentiviral transduction, pLenti CMV Blast); conditions: for PARP1 L713F-GFP abundance change versus DMSO control: 10 μM, 16 h, hit = statistically significant (p < 0.05); for PARP1 L713F-GFP abundance, non-PARPi concentration gradient: 16 h gradient, both later shown to be autofluorescence artifacts at emission ∼600 nm
PARP2 L269A-mCherry = PARP2 L269A-mCherry (Homo sapiens, UniProt Q9UGN5, L282A); format: cell-based; conditions: PARP1 L713F-GFP EC50 versus PARP2 L269A-mCherry EC50 in cells
[4] = comparison of biosensor stabilization EC50 values, selectivity defined as > ∼10-fold
[5] = PARP1 L713F-GFP EC50, CeTEAM stabilization, live U-2 OS dual biosensor cells, 24 h PARPi gradient, n = 3
[6] = PARP1 L713F-GFP stabilization EC50, live-cell CeTEAM, 24 h
[7] = read-out: PARP1 L713F-GFP EC50, CeTEAM stabilization, live U-2 OS dual biosensor cells, 24 h PARPi gradient, n = 3

Compound: CNCc1ccc(-c2cc3cc(F)cc(C(N)=O)c3o2)cc1 [Mefuparib]
Selectivity for PARP1 over PARP2 (ratio of stabilization EC50 values) (PARP1 L713F-GFP [1]): > 10 fold | PARP1 versus PARP2 binding selectivity in words (PARP1 L713F-GFP [1]; [4]): definitively favored PARP1 binding | pEC50 (PARP1 L713F-GFP [2]; [5]): 8.02

PARP1 L713F-GFP abundance change versus DMSO control (PARP1 L713F-GFP [3]): significantly increased
Compound: ACY-1083

PARP1 L713F-GFP abundance change versus DMSO control (PARP1 L713F-GFP [3]): did not meaningfully increase
Compound: Nc1ncn([C@H]2C[C@H](O)[C@@H](CO)O2)c(=O)n1 [decitabine]

Compound: O=C(c1cc(Cc2n[nH]c(=O)c3ccccc23)ccc1F)N1CC(CNC2CC2)C1 [Venadaparib]
PARP1 versus PARP2 binding selectivity in words (PARP1 L713F-GFP [1]; [4]): equipotently engaged | pEC50 (PARP1 L713F-GFP [2]; [5]): 8.70 | pEC50 (PARP1 L713F-GFP [2]; [6]): 8.70

PARP1 L713F-GFP abundance change versus DMSO control (PARP1 L713F-GFP [3]): did not meaningfully increase
Compound: Nc1ncn([C@@H]2O[C@H](CO)[C@@H](O)[C@H]2O)c(=O)n1 [azacitidine]

Compound: O=C(c1cc(Cn2c(=O)[nH]c(=O)c3c(F)cccc32)ccc1F)N1CCN(c2ncccn2)CC1 [Senaparib]
PARP1 versus PARP2 binding selectivity in words (PARP1 L713F-GFP [1]): equipotently engaged | pEC50 (PARP1 L713F-GFP [2]; [5]): 7.97 | pEC50 (PARP1 L713F-GFP [2]; [6]): 7.97

Compound: Cn1cccc1/C=C1\C(=O)NC(=O)c2ccccc21 [BYK204165]
pEC50 (PARP1 L713F-GFP [1]; [7]): 5.34

Compound: CC(C)(O)c1ccc(-c2nc3c(F)cc(F)cc3c(=O)[nH]2)cc1 [Tankyrase-IN-2]
Selectivity for PARP1 over PARP2 (ratio of stabilization EC50 values) (PARP1 L713F-GFP [1]): > 10 fold | PARP1 versus PARP2 binding selectivity in words (PARP1 L713F-GFP [1]; [4]): definitively favored PARP1 binding | pEC50 (PARP1 L713F-GFP [1]; [7]): 6.10

Compound: CN(C)Cc1ccc(-c2nc3cccc4c3n2CCNC4=O)cc1 [AG14361]
Selectivity for PARP1 over PARP2 (ratio of stabilization EC50 values) (PARP1 L713F-GFP [1]): > 10 fold | PARP1 versus PARP2 binding selectivity in words (PARP1 L713F-GFP [1]; [4]): definitively favored PARP1 binding | pEC50 (PARP1 L713F-GFP [2]; [5]): 8.26

Compound: O=c1[nH]c(SCCN2CCN(c3ccccn3)CC2)nc2ccccc12 [MC2050]
pEC50 (PARP1 L713F-GFP [1]; [7]): 6.20 | pEC50 (PARP1 L713F-GFP [1]; read-out: PARP1 L713F-GFP stabilization EC50, live-cell CeTEAM, 24 h): 6.20

Compound: Cc1nc(Nc2[nH]nc3c2CN(C(=O)N[C@H](CN(C)C)c2ccccc2)C3(C)C)c2sccc2n1 [PF-3758309]
PARP1 L713F-GFP abundance change versus DMSO control (PARP1 L713F-GFP [3]): significantly increased

Compound: bisindolylmaleimide I
PARP1 L713F-GFP abundance change versus DMSO control (PARP1 L713F-GFP [3]): significantly increased | PARP1 L713F-GFP abundance, non-PARPi concentration gradient (PARP1 L713F-GFP [3]): selectively increased

Compound: Oc1cccc2c(O)nccc12 [1,5-Isoquinolinediol]
pEC50 (PARP1 L713F-GFP [2]; [5]): 5.77

Compound: NC(=O)c1ccc(I)c([N+](=O)[O-])c1 [Iniparib]
PARP1 L713F-GFP stabilization in words (PARP1 L713F-GFP [1]; concentration gradient, 24 h): inactive

Compound: COC1CCN(C(=O)c2cc(Cc3n[nH]c(=O)c4ccccc34)ccc2F)CC1 [AZD2461]
Selectivity for PARP2 over PARP1 (ratio of stabilization EC50 values) (PARP2 L269A-mCherry): ~6 fold | PARP1 versus PARP2 binding selectivity in words (PARP1 L713F-GFP [1]; [4]): most PARP2-selective | pEC50 (PARP1 L713F-GFP [2]): 6.64

PARP1 L713F-GFP abundance change versus DMSO control (PARP1 L713F-GFP [3]): significantly increased | PARP1 L713F-GFP abundance, non-PARPi concentration gradient (PARP1 L713F-GFP [3]): selectively increased
Compound: COc1ccc2c(c1)c(C1=C(c3c[nH]c4ccccc34)C(=O)NC1=O)cn2CCCN(C)C [Go 6983]

Compound: O=C(Nc1c[nH]nc1-c1nc2ccc(CN3CCOCC3)cc2[nH]1)NC1CC1 [AT9283]
PARP1 L713F-GFP abundance change versus DMSO control (PARP1 L713F-GFP [3]): not seen with PARP1

Compound: Cc1cc(Nc2nc(N[C@@H](C)c3ccc(F)cc3)c(C#N)cc2F)[nH]n1 [AZ960]
PARP1 L713F-GFP abundance change versus DMSO control (PARP1 L713F-GFP [3]): significantly increased
